According to PubChem BioAssay (NCI):
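Five compound concentrations were applied to cells in 96-well plates for 48 hours; endpoints were derived by simple linear interpolation of the resulting dose-response curve. GI50 marks 50% less growth.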 Some entries of the source have several records that differ or are many. They are shown here; other results are not. The source may hold further records. For some assays here: Records of one sample usually come from different ranges of test concentrations, which the source does not state; a value can be the end of its range. For some assays here: The records of an entry are repeated measurements (runs, samples, wells, individuals or studies). Records carry a tag for their origin. A, B and so on number the origins entry by entry.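 At the TGI there is no net growth.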

Assays:
Assay in all cases: NCI tumour cell line growth inhibition, 48 h
[1] = test system: MALME-3M melanoma
[2] = test system: OVCAR-8 ovarian
[3] = test system: LOX IMVI melanoma
[4] = test system: MCF7 breast
[5] = test system: HL-60(TB) leukemia
[6] = test system: CCRF-CEM leukemia
[7] = test system: A498 renal
[8] = test system: HCC-2998 colon
[9] = test system: NCI-H23 lung
[10] = test system: NCI-H460 lung
[11] = test system: SF-539 CNS
[12] = test system: DU-145 prostate
[13] = test system: M14 melanoma
[14] = test system: SR leukemia
[15] = test system: PC-3 prostate
[16] = test system: OVCAR-4 ovarian
[17] = test system: MOLT-4 leukemia
[18] = test system: ACHN renal
[19] = test system: NCI/ADR-RES ovarian

SMILES: C[C@@]1(CO)[C@H](O)CC[C@@]2(C)[C@H]1CC[C@H]1C[C@@H]3C[C@@]12CC[C@@]3(O)COC(=O)CN
- GI50 [1]: > 500 µM [1 test] and 31.6 µM, 43.7 µM [mean of 7 tests]
- TGI [2]: > 500 µM [1 test] and 26.8 µM, 122 µM [mean of 7 tests]
- TGI [3]: 28.4 µM, > 500 µM, 160 µM
- TGI [4]: > 500 µM [1 test] and 44.4 µM [mean of 5 tests] and 192 µM [mean of 6 tests]
- TGI [5]: 16.1 µM, > 500 µM, 41.9 µM
- TGI [6]: 44.2 µM, > 500 µM, > 277 µM
- TGI [7]: > 500 µM [1 test] and 42.4 µM [mean of 5 tests] and 141 µM [mean of 6 tests]
- TGI [8]: 41.7 µM, > 500 µM, 202 µM
- GI50 [9]: > 500 µM [1 test] and 5.53 µM [mean of 6 tests]
- TGI [9]: 31.1 µM, > 500 µM, 117 µM
- TGI [10]: > 500 µM [1 test] and 23.7 µM [mean of 6 tests] and 114 µM [mean of 7 tests]
- TGI [11]: > 500 µM [1 test] and 60.4 µM, 24.8 µM [mean of 7 tests]

SMILES: C1CN1c1nc(N2CC2)nc(N2CC2)n1
- TGI [6]: 51.2 µM and 900 nM
- TGI [12]: 61.5 µM and 3.55 µM

SMILES: CN1CCN(CCn2c3c4ccccc4ccc3c3oc(=O)c4ccccc4c32)CC1
- TGI [3]: 2.99 µM and > 100 µM

SMILES: CN(C)c1ccc2nc3ccc(N)cc3[n+](-c3ccccc3)c2c1
- GI50 [13]: 5.23 µM [sample A, mean of 2 tests] and 420 nM [sample B, 1 test]
- TGI [13]: 19.6 µM [sample A, mean of 2 tests] and 1.42 µM [sample B, 1 test]
- TGI [14]: > 100 µM [sample A, 1 test] and 8.88 µM [sample B, 1 test]
- GI50 [15]: 2.95 µM [sample A, mean of 2 tests] and 127 nM [sample B, 1 test]
- TGI [16]: > 100 µM [sample A, 1 test] and 1.88 µM [sample B, 1 test]
- TGI [17]: > 100 µM [sample A, 1 test] and 5.94 µM [sample B, 1 test]
- GI50 [18]: 12.3 µM [sample A, mean of 2 tests] and 404 nM [sample B, 1 test]
- GI50 [19]: > 100 µM [sample A, mean of 2 tests] and 1.02 µM [sample B, 1 test]
